The results in this text go back to paper PMC10668032.

The list shows a part of the results. At the low end of the ranking, values are background and their order means little.

The assay addresses SIX1 homeodomain (reference allele) (UniProt Q15475). The assay is described as follows: universal protein binding microarray. Conditions: Universal all-10-mer PBM (8x60K, AMADID 030236), 300 nM GST-tagged protein, Alexa Fluor 488 anti-GST; buffer, salt, pH and temperature not stated; high values mean tight binding; most listed sequences are background and not binding sites; double strand, one strand shown.
As for ACTGTGGA, the binding signal was determined as 0.0576 E-score.
As to AATCCAAA, the binding signal is -0.0987 E-score.
Then AGGTCCCA, with -0.0797 E-score.
For GTCGGAAA, the binding signal is -0.0118 E-score.
Take CACTCGCC: the binding signal was -0.00599 E-score.
Consider ATTGTTCC, for which the binding signal is 0.0234 E-score.
In the case of CTTGGTCA, the binding signal was -0.0119 E-score.
As for GGTCCACC, the binding signal is -0.0994 E-score.
Take GCTCCCGA: the binding signal was 0.00864 E-score.
The figure for ACCGAAAG is -0.218 E-score; for GACGTGCC it is -0.158 E-score; for GGCGAGAC it is 0.0633 E-score.
Then CCACACCA, with 0.15 E-score; and CACGAACA, with -0.00191 E-score; and ATCACAGG, with 0.129 E-score.
The figure for CTTTAACA is -0.188 E-score.
With AGGGTGGG, the binding signal is -0.0353 E-score.
Consider AGACTTAG, for which the binding signal was -0.187 E-score.
The figure for ACAGGATC is 0.283 E-score; for ATTGATGC it is 0.182 E-score; for AATGATTC it is -0.0641 E-score.
The figure for CGGTCAAA is -0.24 E-score.
The figure for ATATTCCA is 0.222 E-score; for CAACTGGC it is -0.135 E-score.
AATAACCC: the binding signal stood at 0.12 E-score.
Regarding GACTTAGC, the binding signal is -0.227 E-score.
With CAAGCCTG, the binding signal was -0.111 E-score.
The figure for AGTGCACT is -0.192 E-score; for AACGCGAT it is 0.0903 E-score; for GGGGAACA it is -0.211 E-score.
On to CTCCGCCC, for which the binding signal is -0.0707 E-score.
The figure for CGTTGAAG is -0.204 E-score; for CGTTAGCA it is -0.0784 E-score.
In the case of ATGGCATG, the binding signal is -0.0599 E-score.
Then ACTCATCA, with -0.0444 E-score.
As for CGCTTCCA, the binding signal was -0.173 E-score.
Then ATGGAAAA, with -0.0285 E-score; and GGTCGCGA, with 0.114 E-score; and GGGTCGCA, with -0.0849 E-score.
Take TGGTCAAA: the binding signal was -0.257 E-score.
As for AGGGGTCC, the binding signal was -0.221 E-score.
For the sequence AAACGTCA, the binding signal is -0.233 E-score.
For the sequence AGATCACC, the binding signal came to 0.317 E-score.
As for CATGAACA, the binding signal was -0.0859 E-score.
In the case of AGGCCGCG, the binding signal is -0.241 E-score.
For CTTACCAC, the binding signal was -0.0585 E-score.
Consider AATGTTGT, for which the binding signal is -0.176 E-score.
With TACGGATA, the binding signal came to 0.401 E-score.
With ACCAGTCA, the binding signal is -0.1 E-score.
The figure for GCCCGAGA is 0.0429 E-score; for AACTAGTG it is -0.116 E-score; for GAAGGGCC it is 0.0186 E-score.
For the sequence GAAACCAA, the binding signal was 0.052 E-score.
The figure for CGCGACAA is -0.119 E-score; for ATAGAAGG it is 0.0424 E-score.
TCCAGGCA: the binding signal is -0.00829 E-score.
The figure for CACACACA is -0.102 E-score; for GTCGATGA it is 0.0348 E-score.
With AAGCCCAT, the binding signal was -0.0752 E-score.
The figure for AAGTCGCC is -0.298 E-score; for AAGTTGTG it is -0.225 E-score; for CTAACGAG it is 0.144 E-score.
In the case of ATTACAGA, the binding signal worked out at 0.137 E-score.
Regarding CCCTCGCA, the binding signal was determined as 0.0847 E-score.
With CATGGGAC, the binding signal is -0.0574 E-score.
Consider AACAATTC, for which the binding signal is -0.38 E-score.
ACATCGGG: the binding signal is -0.0059 E-score.
Then ATACGTCC, with 0.24 E-score; and CATGTAAA, with -0.195 E-score.
With ATCAGTAA, the binding signal worked out at 0.296 E-score.
For AAGCTCGA, the binding signal was -0.0115 E-score.
ACTAGCCT: the binding signal is -0.116 E-score.
For ATGCAGTC, the binding signal is -0.0683 E-score.
Then GGGGTCTA, with 0.194 E-score; and GCCGCCGA, with -0.00101 E-score.
TCTAAGCA: the binding signal was -0.132 E-score.
The figure for CCTATATA is 0.138 E-score; for GAGATTTA it is -0.0915 E-score.
Then TATCGCGA, with 0.395 E-score; and AAGACCAC, with -0.284 E-score.
Take CAGGCTTA: the binding signal is -0.142 E-score.
Then TCCTATCA, with 0.307 E-score; and CTACACTA, with 0.0388 E-score; and AAGGACCG, with -0.304 E-score.
In the case of CAATCGGA, the binding signal was 0.198 E-score.
Then CTAACTTA, with -0.0631 E-score.
Then TATCAAAA, with 0.342 E-score; and GCACTGTA, with -0.124 E-score.
TCGCGGAA: the binding signal is 0.0925 E-score.
As for ATCTGGCA, the binding signal turned out to be 0.23 E-score.
Then GACGACTC, with -0.113 E-score; and ACGACCAC, with -0.231 E-score; and GCCAACAC, with -0.00375 E-score.
The figure for ACTCACTG is -0.0843 E-score; for AACGTTCC it is -0.286 E-score; for ACATAACA it is -0.199 E-score.
As to CGATACTA, the binding signal was 0.424 E-score.
On to AACGAACG, for which the binding signal was -0.304 E-score.
Then ACTGTGAA, with -0.195 E-score; and AGTATCTC, with 0.376 E-score; and ACAATATC, with 0.309 E-score.
In the case of AGATCACT, the binding signal came out at 0.385 E-score.
As for AGCATAAC, the binding signal is -0.00911 E-score.
In the case of CCTCATCG, the binding signal came to 0.185 E-score.
In the case of ACTAAAAG, the binding signal is -0.0599 E-score.
Take CTTTCTCC: the binding signal is -0.222 E-score.
The figure for AAGCTAAC is -0.212 E-score.
As for CAGTAGGC, the binding signal was -0.207 E-score.
With AAGAAAGG, the binding signal is -0.0535 E-score.
